No constants are given. Whether binding was seen depends on the method and setting. Binding seen in cells or lysates may run through a third protein. Some results given as binding are weak or reduced against the parent protein; the word gives no strength. For some assays here: Where a sequence is shown, tags or fusion partners need not be part of it.
Columns and labels:
[1] = biological target: T1, Flag‐HMGB2‐full‐length (210 amino acids) (UniProt P30681); assay: co-IP; HEK293T cells transfected with HA-MTA2-FL and full-length or truncated Flag-HMGB2 plasmids; lysate, rProtein A/G magnetic beads, Western blot
T1 sequence: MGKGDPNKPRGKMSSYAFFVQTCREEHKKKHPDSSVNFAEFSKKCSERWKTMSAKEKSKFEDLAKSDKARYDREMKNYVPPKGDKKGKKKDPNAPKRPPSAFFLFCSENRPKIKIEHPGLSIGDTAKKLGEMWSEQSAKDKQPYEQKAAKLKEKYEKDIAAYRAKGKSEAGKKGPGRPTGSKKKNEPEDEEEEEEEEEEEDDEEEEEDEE

Amino acid sequences for entries named in this document (tags omitted).
UniProt Q9R190: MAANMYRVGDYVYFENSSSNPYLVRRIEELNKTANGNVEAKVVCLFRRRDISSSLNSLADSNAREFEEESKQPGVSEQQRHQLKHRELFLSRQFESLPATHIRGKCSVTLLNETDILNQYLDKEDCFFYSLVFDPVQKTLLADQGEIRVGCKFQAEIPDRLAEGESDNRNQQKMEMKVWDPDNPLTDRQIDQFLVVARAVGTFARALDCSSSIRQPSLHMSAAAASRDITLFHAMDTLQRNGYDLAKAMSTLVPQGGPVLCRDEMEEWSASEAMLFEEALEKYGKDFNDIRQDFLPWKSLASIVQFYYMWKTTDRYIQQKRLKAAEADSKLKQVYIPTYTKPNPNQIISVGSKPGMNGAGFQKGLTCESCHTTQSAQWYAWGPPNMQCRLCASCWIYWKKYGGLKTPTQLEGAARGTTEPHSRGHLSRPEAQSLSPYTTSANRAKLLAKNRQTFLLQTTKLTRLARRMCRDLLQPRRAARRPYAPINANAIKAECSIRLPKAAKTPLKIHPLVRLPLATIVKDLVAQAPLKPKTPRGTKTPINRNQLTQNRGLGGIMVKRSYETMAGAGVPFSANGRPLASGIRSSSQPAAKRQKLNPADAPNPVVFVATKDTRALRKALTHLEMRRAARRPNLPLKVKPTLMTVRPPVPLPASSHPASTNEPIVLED

[2] = biological target: T2, Flag‐HMGB2∆165 (165 amino acids) (UniProt P30681); assay: as above
T2 sequence: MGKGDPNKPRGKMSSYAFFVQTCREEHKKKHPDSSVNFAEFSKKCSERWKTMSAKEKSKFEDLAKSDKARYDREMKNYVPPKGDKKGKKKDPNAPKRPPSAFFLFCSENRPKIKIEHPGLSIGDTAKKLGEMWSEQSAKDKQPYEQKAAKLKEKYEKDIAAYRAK

[3] = biological target: T3, Flag‐HMGB2∆79 (79 amino acids) (UniProt P30681); assay: as above
T3 sequence: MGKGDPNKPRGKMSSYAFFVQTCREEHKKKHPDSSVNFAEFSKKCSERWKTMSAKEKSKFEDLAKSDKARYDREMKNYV

[4] = biological target: T4, high mobility group box 2 (HMGB2), endogenous mouse (mouse (endogenous in neonatal mouse myocardium and NMCMs)) (UniProt P30681); assay: co-IP; endogenous proteins in P1 mouse myocardium at 7 dpr; HMGB2 or MTA2 antibodies, Western blot
T4 sequence: T1 sequence

[5] = biological target: T4, high mobility group box 2 (HMGB2), endogenous mouse (mouse (endogenous in neonatal mouse myocardium and NMCMs)); assay: co-IP; endogenous proteins in NMCM lysate; primary antibody overnight at 4 °C, rProtein A/G magnetic beads, Western blot

HA‐MTA2‐full‐length (from UniProt Q9R190 1-668)
binding [1]: binds | binding [2]: binds | binding [3]: no binding

metastasis‐associated protein 2 (MTA2), endogenous mouse (from UniProt Q9R190 1-668)
binding [4]: binds | binding [5]: binds
